# Assay results reported in PubChem BioAssay (Tox21).
# Values joined by “and” are separate entries in the source; they are usually repeats but may differ in a detail not shown here. Equal entries are not always repeated. Inconclusive results, whose numbers are uncertain, are shown with a selection of clear calls. For some of these results: Where the call is inconclusive, the potency comes from a doubtful curve fit. Active and inactive are the calls of the source. Unless noted, the call rests on the fitted dose curve; in most records, active means well fitted curve in the direction sought with a large enough effect in the repeat runs; inconclusive means weak or mixed curves; inactive means no such curve, though single readings can be large; an effect the other way counts as inactive or inconclusive.
# What was measured:
# [1] = qHTS assay to identify small molecule antagonists of the peroxisome proliferator-activated receptor gamma (PPARg) signaling pathway - cell viability counter screen (AID 743194); settings: PPARg-bla HEK293H viability, CellTiter-Glo luminescence, 17 h; Potency: co-treated with 50 nM rosiglitazone unless noted; activity change, negative = cytotoxicity: at 62.6 µM (top of the series), co-treated with 50 nM rosiglitazone unless noted; further: potency means the concentration at half of the fitted maximal effect; nearly all actives have a fitted effect of over 55% in size
# Procedure, shortened: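 PPARg-UAS-bla HEK293H cells were plated, rested 5 h at 37 C, then treated with compounds plus rosiglitazone (50 nM final) for 17 h at 37 C; viability was then read by CellTiter-Glo luminescence after 30 min at room temperature.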
# [2] = qHTS assay for small molecule agonists of the antioxidant response element (ARE) signaling pathway (AID 743202; active means well fitted activation curve with a large enough effect in the signal ratio in the repeat runs, not every such curve was filed as active; inconclusive means weak or mixed curves, or effect the other way; inactive means no such curve, though single readings can be large or run the other way; the % refers to the signal ratio; further: potency means the concentration at half of the fitted maximal effect; on activation: on the % scale 0 is the no-effect control and ±100 the full control effect); settings: HepG2 ARE-bla reporter, beta-lactamase FRET, 16 h; activation: at 73.3 µM (top of the series) unless noted
# Procedure, shortened: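 Steps: seed ARE-bla HepG2 cells (2,000/well); incubate 5 h at 37 C; add compounds by pin tool; incubate 16 h at 37 C; add FRET substrate; read fluorescence after 2 h at RT.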
# [3] = qHTS assay for small molecule activators of the heat shock response signaling pathway - cell viability counter screen (AID 743209); settings: HSE-bla HeLa viability, CellTiter-Glo luminescence, 5 h; activity change, negative = cytotoxicity: at 62.6 µM (top of the series) unless noted; further: potency means the concentration at half of the fitted maximal effect; nearly all actives have a fitted effect of over 50% in size
# Procedure, shortened: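 Compounds dissolved in DMSO were added to overnight-plated HSE-bla HeLa cells and left 5 h at 37 C. Cell viability was quantified by luminescence using CellTiter-Glo.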
# [4] = qHTS assay for small molecule activators of the heat shock response signaling pathway (AID 743210; active means well fitted activation curve with a large enough effect in the signal ratio in the repeat runs, with a control signal flat, not every such curve was filed as active; inconclusive means weak or mixed curves; the % refers to the signal ratio; further: potency means the concentration at half of the fitted maximal effect); settings: HeLa HSE-bla reporter, beta-lactamase ratio, 5 h; activation: at 62.6 µM (top of the series) unless noted
# Procedure, shortened: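 Activation of heat shock element-controlled beta-lactamase expression is measured in HeLa cells by LiveBLAzer FRET fluorescence, with compound exposure lasting 5 h at 37 C and substrate loading 2.5 h at room temperature.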
# [5] = qHTS assay to identify small molecule agonists of the peroxisome proliferator-activated receptor delta (PPARd) signaling pathway - cell viability counter screen (AID 743211); settings: PPARd-bla HEK293H viability, CellTiter-Glo luminescence, 17 h; activity change, negative = cytotoxicity: at 62.6 µM (top of the series); further: potency means the concentration at half of the fitted maximal effect; nearly all actives have a fitted effect of over 55% in size
# Procedure, shortened: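 Viability was measured as CellTiter-Glo luminescence (30 min, room temperature) in the same wells as the beta-lactamase readout. GeneBLAzer PPARd UAS-bla HEK293H cells received compound after 5 h plating and were incubated 17 h at 37 C.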
# [6] = biological target: Peroxisome proliferator-activated receptor delta (Homo sapiens) (UniProt Q03181); test: qHTS assay to identify small molecule agonists of the peroxisome proliferator-activated receptor delta (PPARd) signaling pathway (AID 743212; calls by dose curve; further: potency means the concentration at half of the fitted maximal effect; on activation: on the % scale 0 is the no-effect control and ±100 the full control effect); settings: HEK293H PPARd-UAS-bla, beta-lactamase FRET ratio, 17 h; activation: at 62.6 µM (top of the series) unless noted
# UniProt Q03181, sequence (Q03181 whole entry, looked up): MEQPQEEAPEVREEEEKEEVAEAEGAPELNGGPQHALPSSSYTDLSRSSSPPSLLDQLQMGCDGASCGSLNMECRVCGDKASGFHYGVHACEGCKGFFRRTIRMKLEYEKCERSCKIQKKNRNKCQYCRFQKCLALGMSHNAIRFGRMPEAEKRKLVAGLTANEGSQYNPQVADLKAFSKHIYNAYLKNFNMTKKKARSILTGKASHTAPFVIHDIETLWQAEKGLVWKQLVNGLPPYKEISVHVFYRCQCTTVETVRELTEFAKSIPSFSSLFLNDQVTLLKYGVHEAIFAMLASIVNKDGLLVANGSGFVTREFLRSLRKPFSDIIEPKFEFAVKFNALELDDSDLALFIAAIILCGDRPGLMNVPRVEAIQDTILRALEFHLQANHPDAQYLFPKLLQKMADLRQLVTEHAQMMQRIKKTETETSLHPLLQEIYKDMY
# Procedure, shortened: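 Cells expressing a UAS-driven beta-lactamase reporter (PPARd-bla HEK293H) were given test compounds after a 5 h settle and kept at 37 C. Reporter activity was then measured as FRET fluorescence using LiveBLAzer B/G substrate.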
# [7] = qHTS assay to identify small molecule antagonists of the peroxisome proliferator-activated receptor delta (PPARd) signaling pathway - cell viability counter screen (AID 743213); settings: PPARd-bla HEK293H viability, CellTiter-Glo luminescence, 17 h; viability change, negative = cytotoxic: at 62 µM (top of the series) unless noted; further: potency means the concentration at half of the fitted maximal effect; nearly all actives have a fitted effect of over 50% in size
# Procedure, shortened: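 HEK293H PPARd UAS-bla cells, 5 h pre-incubation, compound + L165041 300 nM final, 17 h 37 C; B/G FRET substrate 2 h RT; then CellTiter-Glo 30 min RT, luminescence.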
# [8] = biological target: Peroxisome proliferator-activated receptor delta (Homo sapiens) (UniProt Q03181); test: qHTS assay to identify small molecule antagonists of the peroxisome proliferator-activated receptor delta (PPARd) signaling pathway (AID 743215; active means well fitted inhibition curve with a large enough effect in the signal ratio in the repeat runs, not every such curve was filed as active; inconclusive means weak or mixed curves, or effect the other way; inactive means no such curve, though single readings can be large or run the other way; the % refers to the signal ratio;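 further: cells stimulated with agonist L165041 at 300 nM final during compound exposure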; further: potency means the concentration at half of the fitted maximal effect; on ratio activity, negative = inhibition: on the % scale 0 is the no-effect control and ±100 the full control effect); settings: HEK293H PPARd-UAS-bla, beta-lactamase FRET ratio, antagonist, 17 h
# Procedure, shortened: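 Here, a reporter line (HEK293H, beta-lactamase under a UAS) measures PPARd signaling. Compounds are tested against agonist L165041 at 300 nM final concentration over 17 h at 37 C, with fluorescence read after substrate.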
# [9] = biological target: Bile acid receptor (Homo sapiens) (UniProt Q96RI1); test: qHTS assay to identify small molecule antagonists of the farnesoid-X-receptor (FXR) signaling pathway (AID 743217; active means well fitted inhibition curve with a large enough effect in the signal ratio in the repeat runs, not every such curve was filed as active; inconclusive means weak or mixed curves, or effect the other way; inactive means no such curve, though single readings can be large or run the other way; the % refers to the signal ratio; further: potency means the concentration at half of the fitted maximal effect; on activity change, negative = inhibition: on the % scale 0 is the no-effect control and ±100 the full control effect); settings: HEK293T FXR-UAS-bla, beta-lactamase ratio, CDCA-stimulated, 16 h; activity change, negative = inhibition: at 62.6 µM (top of the series) unless noted
# UniProt Q96RI1, sequence (Q96RI1 whole entry, looked up): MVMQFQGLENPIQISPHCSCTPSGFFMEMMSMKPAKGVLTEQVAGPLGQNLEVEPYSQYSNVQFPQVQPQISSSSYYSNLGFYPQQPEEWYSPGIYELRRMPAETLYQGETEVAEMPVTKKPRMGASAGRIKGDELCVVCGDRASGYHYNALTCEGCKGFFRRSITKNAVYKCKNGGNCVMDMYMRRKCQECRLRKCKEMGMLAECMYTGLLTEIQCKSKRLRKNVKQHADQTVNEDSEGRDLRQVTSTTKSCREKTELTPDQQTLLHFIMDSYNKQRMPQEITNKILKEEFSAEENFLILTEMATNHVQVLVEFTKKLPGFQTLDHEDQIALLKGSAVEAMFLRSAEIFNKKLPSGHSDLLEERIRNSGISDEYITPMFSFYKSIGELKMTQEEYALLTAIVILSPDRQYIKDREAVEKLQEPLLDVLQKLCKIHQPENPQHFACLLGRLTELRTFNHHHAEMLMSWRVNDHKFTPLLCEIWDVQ
# Procedure, shortened: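 Test compounds are pin-transferred onto FXR-bla HEK 293T cells, then chenodeoxycholic acid is added at 50 uM final. After 16 h at 37 °C, LiveBLAzer B/G substrate is applied for 2 h at room temperature and fluorescence read.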
# [10] = qHTS assay for small molecule agonists of the antioxidant response element (ARE) signaling pathway - cell viability counter screen (AID 743203; calls by dose curve; further: on the % scale 0 is the no-effect control and ±100 the full control effect; nearly all actives have a fitted effect of over 55% in size); settings: ARE-bla HepG2 viability, CellTiter-Glo luminescence, 16 h; viability change, negative = cytotoxic: at 73.3 µM (top of the series)
# Procedure, shortened: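 ATP content via CellTiter-Glo luminescence served as the viability measure. Cells: ARE-bla HepG2, 2,000 per well. Exposure: 16 hrs, 37C/5% CO2.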
# [11] = ratio activity, negative = inhibition: at 62 µM (top of the series) unless noted
# Tags describe the fitted curve by direction and shape or compound fluorescence and quenching.
Compound,Potency [1],Potency [2],Potency [3],Potency [4],Potency [5],activation [6],Potency [6],Potency [7],"Potency [8, 11]",Potency [9],"activity change, negative = inhibition [9]",Potency [10],"ratio activity, negative = inhibition ([8]; at 62 µM (top of the series))","ratio activity, negative = inhibition [8, 11]"
Clc1ccc(C(c2ccc(Cl)cc2)C(Cl)Cl)cc1,active: 24.9 µM and active: 38.9 µM,inconclusive: 62.1 µM and inconclusive: 68.6 µM [single point],"inconclusive: 55.8 µM [cytotoxic, single point] and active: 49 µM",inconclusive: 58 µM and inconclusive: 52.9 µM,"inconclusive: 54.9 µM [cytotoxic, single point]",inconclusive: 12.4% [at 81.1 µM],–,–,–,–,–,–,–,–
CCC[CH2][Sn]([CH2]CCC)([O]C(C)=O)[O]C(C)=O,active: 2.78 µM,"inconclusive: 7.77 µM [falling, partial curve]","inconclusive: 6.22 µM [cytotoxic, full curve]",inconclusive: 2.78 µM,"inconclusive: 24.8 µM [cytotoxic, full curve]",–,"inconclusive: 22.1 µM [rising, full curve]","inconclusive: 0.156 µM [cytotoxic, full curve, poor fit]",active: 19.7 µM,"inconclusive: 9.86 µM [rising, full curve]",–,–,–,–
O=C/C(Cl)=C(/Cl)C(=O)O,inconclusive: 54.9 µM [cytotoxic],active: 38.5 µM and active: 27.3 µM,"inconclusive: 54.9 µM [cytotoxic, single point] and active: 38.9 µM",inconclusive: 30.9 µM and inconclusive: 16.1 µM,–,–,–,–,"inconclusive: 54.9 µM [inhibitor, single point]",–,inconclusive: -27.1% and inconclusive: -31.9%,–,–,–
O=P(Oc1ccccc1)(Oc1ccccc1)Oc1ccccc1,"inconclusive: 48.7 µM [cytotoxic, partial curve, poor fit] and inconclusive: 54.9 µM [cytotoxic, single point]",inconclusive: 24.2 µM and inactive,–,"inconclusive: 61.3 µM [rising, single point]","inconclusive: 49 µM [cytotoxic, partial curve, poor fit]",–,"inconclusive: 15.4 µM [rising, full curve, poor fit]","inconclusive: 11 µM [cytotoxic, partial curve, poor fit]",–,–,–,inactive,inactive: -9.44%,inconclusive: -26%
CC(C)Oc1cccc(NC(=O)c2ccccc2C(F)(F)F)c1,"inconclusive: 1.09 µM [cytotoxic, full curve, poor fit]",inconclusive: 27.3 µM,"inconclusive: 0.0386 µM [cytotoxic, full curve, poor fit]",–,"inconclusive: 12.2 µM [cytotoxic, full curve, poor fit]",–,"inconclusive: 30.6 µM [rising, single point]",inconclusive: 27.3 µM [cytotoxic],inconclusive: 54.9 µM [cytotoxic],–,–,–,–,–
C[C@H]1CC[C@@H]2[C@@H](C)[C@H]3[C@H](C[C@H]4[C@@H]5CC=C6CC(O[C@@H]7O[C@H](CO)[C@H](O)[C@H](O[C@@H]8O[C@H](CO)[C@@H](O)[C@H](O)[C@H]8O)[C@H]7O[C@H]7O[C@@H](C)[C@H](O)[C@@H](O)[C@H]7O)CC[C@]6(C)[C@H]5CC[C@]34C)N2C1 (stereo partly drawn),active: 8.99 µM,"inconclusive: 6.31 µM [falling, full curve]",active: 16 µM,inconclusive: 16 µM,active: 1.43 µM,–,–,active: 25.3 µM,–,inconclusive: 22.6 µM [inhibitor],–,–,–,–
CCOP(=O)(NC(C)C)Oc1ccc(SC)c(C)c1 (stereo not drawn),"inconclusive: 9.77 µM [rising, full curve, poor fit]",inconclusive: 54.5 µM,"inconclusive: 0.969 µM [cytotoxic, single point]",–,"inconclusive: 8.71 µM [cytotoxic, full curve]",–,"inconclusive: 0.0219 µM [rising, full curve, poor fit]","inconclusive: 0.11 µM [cytotoxic, full curve, poor fit]",–,"inconclusive: 24.5 µM [activator, partial curve, poor fit]",–,–,–,inconclusive: 15%
Cc1cc(SCc2sc(-c3ccc(C(F)(F)F)c(F)c3)nc2C)ccc1OCC(=O)O,active: 49 µM,"inconclusive: 68.6 µM [falling, single point]","inconclusive: 43.6 µM [cytotoxic, partial curve]",inconclusive: 42 µM,active: 38.9 µM,–,–,active: 12.3 µM,–,–,–,–,–,–
